Assay results reported in article PMC4336329 (PLoS ONE, 2015).
About 14,000 (4.5%) of roughly 310,000 compounds showed an effect of 50% or more. The effect is printed as a negative number. Some of the results follow.

What follows are compounds tested against human ether-à-go-go-related gene (hERG) potassium channel (human, UniProt Q12809) (assay: primary screen, population patch clamp on CHO cells stably expressing hERG).
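Also: peak tail current of the secondary pulse compared with the same well before compound.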

human ether-à-go-go-related gene (hERG) potassium channel, sequence (Q12809 whole entry, looked up): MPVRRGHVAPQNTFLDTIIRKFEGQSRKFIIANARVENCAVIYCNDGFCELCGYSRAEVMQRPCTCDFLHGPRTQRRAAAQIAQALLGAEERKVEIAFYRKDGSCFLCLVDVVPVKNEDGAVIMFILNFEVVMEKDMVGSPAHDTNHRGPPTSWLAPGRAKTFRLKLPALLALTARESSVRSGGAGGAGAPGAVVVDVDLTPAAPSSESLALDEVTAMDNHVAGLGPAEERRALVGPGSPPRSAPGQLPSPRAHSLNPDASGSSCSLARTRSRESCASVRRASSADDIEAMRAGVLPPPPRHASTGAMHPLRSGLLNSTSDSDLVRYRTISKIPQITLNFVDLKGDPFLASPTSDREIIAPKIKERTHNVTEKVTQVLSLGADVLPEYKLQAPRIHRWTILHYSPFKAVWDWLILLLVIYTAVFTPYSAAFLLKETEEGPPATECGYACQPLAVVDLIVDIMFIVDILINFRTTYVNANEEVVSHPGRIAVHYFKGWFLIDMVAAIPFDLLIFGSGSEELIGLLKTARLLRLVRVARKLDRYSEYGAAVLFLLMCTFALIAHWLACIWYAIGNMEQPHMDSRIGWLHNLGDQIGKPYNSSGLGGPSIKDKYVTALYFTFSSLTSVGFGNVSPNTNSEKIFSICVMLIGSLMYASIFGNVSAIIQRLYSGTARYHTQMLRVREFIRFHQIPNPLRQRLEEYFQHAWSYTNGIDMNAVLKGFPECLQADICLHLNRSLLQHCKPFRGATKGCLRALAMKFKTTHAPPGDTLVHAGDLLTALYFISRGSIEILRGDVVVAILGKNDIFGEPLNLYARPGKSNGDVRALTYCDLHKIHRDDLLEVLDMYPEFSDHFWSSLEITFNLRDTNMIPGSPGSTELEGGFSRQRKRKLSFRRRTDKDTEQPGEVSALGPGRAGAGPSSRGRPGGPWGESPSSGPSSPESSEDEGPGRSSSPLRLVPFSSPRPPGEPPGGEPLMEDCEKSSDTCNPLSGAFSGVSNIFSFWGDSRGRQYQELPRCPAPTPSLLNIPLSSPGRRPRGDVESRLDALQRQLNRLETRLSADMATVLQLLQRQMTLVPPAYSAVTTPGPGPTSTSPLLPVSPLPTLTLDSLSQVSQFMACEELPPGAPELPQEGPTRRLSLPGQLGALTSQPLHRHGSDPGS

SMILES | hERG current change (%, negative = inhibition) at 10uM [%]
CCCc1nnc(SCC(=O)N2CCCC(C)C2)n1CCCOC (stereo not shown) | 22.8
Cc1cc(C(C)(C)C)ccc1OCCCCN1CCCC1 | -40
Cc1ccc(C)c(-n2nnnc2SCC(=O)Nc2c(C)n(C)n(-c3ccccc3)c2=O)c1 | 3.24
Cl.O=C(Cc1ccccc1)OCCN1CCCCC1 | -0.594
O=C(Nc1ncc(Cc2cccc(Cl)c2)s1)C1=NCCN1 | 5.01
COCCN1CN(S(=O)(=O)c2ccc(Cl)cc2)c2nc3ccccc3nc21 | -75.9
COc1ccccc1OCC(O)CO (stereo not shown) | 12.4
Cc1cccc(N2C(=O)C(CC(=O)Nc3cccc(F)c3)N(CCc3ccncc3)C2=O)c1 (stereo not shown) | -43.6
Cc1cc(-c2ccccc2)nc2oc3c(c12)NC(=O)CN(c1ccccc1)C3=O | -3.26
CS(=O)(=O)N(CCCC(=O)N1CCCCCC1)c1cccc(Cl)c1 | -0.119
Cc1cccc(Cc2nnc(NC(=O)c3cccc(S(=O)(=O)N4CCOCC4)c3)s2)c1 | 16.2
CC(C)(C)c1ccc(CN2N=Nc3ccccc3S2(=O)=O)cc1 | 5.56
Cc1ccc(Cn2c(CN3CC(C)OC(C)C3)nc3c2c(=O)n(C)c(=O)n3C)cc1 (stereo not shown) | -18
CC1Cc2ccccc2N1C(=O)COC(=O)C1=COCCO1 (stereo not shown) | -7.1
CCOC(=O)C1CCN(C(=O)c2cccc(S(=O)(=O)N(CC)c3ccccc3)c2)CC1 | -39
O=C(/C=C/c1ccccc1)NC(N1CCOCC1)C(Cl)(Cl)Cl (stereo not shown) | 4.31
Oc1ccc2ccccc2c1N=Nc1ccccc1F | 4.15
COc1cc(NC(=O)C(=O)NNC(=O)C2CCCCC2)c(OC)cc1Cl | -2.85
CNS(=O)(=O)c1cccc(C(=O)OCC(=O)NCCCc2ccccc2)c1 | -5.42
c1ccc2[nH]c(CSc3ncnc4c3oc3ccccc34)nc2c1 | -21.4
CCCCn1ccc(=O)c2c(C(F)(F)F)nccc21 | -8.94
COc1cccc(NC(=O)COC(=O)CCn2c(C)csc2=O)c1 | 11.3
COc1ccc(CCNc2ccc(S(=O)(=O)N3CCN(C)CC3)cc2[N+](=O)[O-])cc1 | -6.46
CCOC(=O)N1CCN(C(=O)c2c[nH]c3ccc(S(=O)(=O)N(C)c4ccc(F)cc4)cc3c2=O)CC1 | 2.03
Cc1cccc(N2CC(C(=O)Nc3ccccc3N3CCCC3)CC2=O)c1C (stereo not shown) | -17.1
